Measured values published in the supplement of paper PMC8728848.
The other results are listed elsewhere or left out.

Key:
Assay in all cases: glycan array binding signal (z-score within array); higher = stronger binding
Conditions in all cases: glycan notation: IUPAC condensed, linker removed
[1] = biological target: Neu5Ac(a2-3)Gal(b1-4)GlcNAc(b1-3)[Neu5Ac(a2-3)Gal(b1-4)GlcNAc(b1-6)]GalNAc
Summary of the method: (§1)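 The binding signal is a Z-score computed within each array and averaged over linkers. Arrays of the same protein sequence at different concentrations or buffers were also averaged together. Data originate from 3228 arrays in the Consortium for Functional Glycomics database, kept only where the protein sequence was available.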

[2] = biological target: Neu5Ac(a2-3)Gal(b1-4)GlcNAc(b1-6)GalNAc
Summary of the method: as §1

[3] = biological target: Neu5Ac(a2-3)Gal(b1-4)GlcNAc(b1-6)[Gal(b1-3)]GalNAc
Summary of the method: as §1

[4] = biological target: Neu5Ac(a2-3)Gal(b1-4)GlcNAc(b1-6)[Neu5Ac(a2-3)Gal(b1-3)]GalNAc
Summary of the method: as §1

[5] = biological target: Neu5Ac(a2-3)Gal(b1-4)GlcNAc6S
Summary of the method: as §1

[6] = biological target: Neu5Ac(a2-3)Gal(b1-4)[Fuc(a1-3)]GlcNAc
Summary of the method: as §1

[7] = biological target: Neu5Ac(a2-3)Gal(b1-4)[Fuc(a1-3)]GlcNAc(b1-2)Man
Summary of the method: as §1

[8] = biological target: Neu5Ac(a2-3)Gal(b1-4)[Fuc(a1-3)]GlcNAc(b1-3)Gal
Summary of the method: as §1

[9] = biological target: Neu5Ac(a2-3)Gal(b1-4)[Fuc(a1-3)]GlcNAc(b1-3)Gal(b1-4)GlcNAc
Summary of the method: as §1

[10] = biological target: Neu5Ac(a2-3)Gal(b1-4)[Fuc(a1-3)]GlcNAc(b1-3)Gal(b1-4)[Fuc(a1-3)]GlcNAc(b1-3)Gal(b1-4)[Fuc(a1-3)]GlcNAc
Summary of the method: as §1

[11] = biological target: Neu5Ac(a2-3)Gal(b1-4)[Fuc(a1-3)]GlcNAc(b1-3)GalNAc
Summary of the method: as §1

[12] = biological target: Neu5Ac(a2-3)Gal(b1-4)[Fuc(a1-3)]GlcNAc(b1-6)[Gal(b1-3)]GalNAc
Summary of the method: as §1

[13] = biological target: Neu5Ac(a2-3)Gal(b1-4)[Fuc(a1-3)]GlcNAc(b1-6)[Neu5Ac(a2-3)Gal(b1-3)]GalNAc
Summary of the method: as §1

[14] = biological target: Neu5Ac(a2-3)Gal(b1-4)[Fuc(a1-3)]GlcNAc6S
Summary of the method: as §1

[15] = biological target: Neu5Ac(a2-3)Gal6S(b1-4)GlcNAc
Summary of the method: as §1

[16] = biological target: Neu5Ac(a2-3)Gal6S(b1-4)[Fuc(a1-3)]GlcNAc
Summary of the method: as §1

[17] = biological target: Neu5Ac(a2-3)GalNAc
Summary of the method: as §1

[18] = biological target: Neu5Ac(a2-3)GalNAc(b1-4)GlcNAc
Summary of the method: as §1

[19] = biological target: Neu5Ac(a2-3)[GalNAc(b1-4)]Gal(b1-4)Glc
Summary of the method: as §1

[20] = biological target: Neu5Ac(a2-3)[GalNAc(b1-4)]Gal(b1-4)GlcNAc
Summary of the method: as §1

[21] = biological target: Neu5Ac(a2-3)[GalNAc(b1-4)]Gal(b1-4)GlcNAc(b1-3)GalNAc
Summary of the method: as §1

[22] = biological target: Neu5Ac(a2-3)[Neu5Ac(a2-6)]GalNAc
Summary of the method: as §1

[23] = biological target: Neu5Ac(a2-6)Gal
Summary of the method: as §1

[24] = biological target: Neu5Ac(a2-6)Gal(b1-3)GlcNAc(b1-3)[Gal(b1-4)GlcNAc(b1-6)]Gal(b1-4)Glc
Summary of the method: as §1

[25] = biological target: Neu5Ac(a2-6)Gal(b1-4)Glc
Summary of the method: as §1

[26] = biological target: Neu5Ac(a2-6)Gal(b1-4)GlcNAc
Summary of the method: as §1

[27] = biological target: Neu5Ac(a2-6)Gal(b1-4)GlcNAc(b1-2)Man
Summary of the method: as §1

[28] = biological target: Neu5Ac(a2-6)Gal(b1-4)GlcNAc(b1-2)Man(a1-3)Man(b1-4)GlcNAc(b1-4)GlcNAc
Summary of the method: as §1

[29] = biological target: Neu5Ac(a2-6)Gal(b1-4)GlcNAc(b1-2)Man(a1-3)[Gal(b1-4)GlcNAc(b1-2)Man(a1-6)]Man(b1-4)GlcNAc(b1-4)GlcNAc
Summary of the method: as §1

[30] = biological target: Neu5Ac(a2-6)Gal(b1-4)GlcNAc(b1-2)Man(a1-3)[GlcNAc(b1-2)Man(a1-6)]Man(b1-4)GlcNAc(b1-4)GlcNAc
Summary of the method: as §1

[31] = biological target: Neu5Ac(a2-6)Gal(b1-4)GlcNAc(b1-2)Man(a1-3)[GlcNAc(b1-4)][Neu5Ac(a2-6)Gal(b1-4)GlcNAc(b1-2)Man(a1-6)]Man(b1-4)GlcNAc(b1-4)GlcNAc
Summary of the method: as §1

B1: Epa15 (Candida glabrata) (protein)
chain: MGSSHHHHHHSSGLVPRGSHMASDPTTFPLGCSPEFTKTKKGLSMELYRYDYLPPGSYPCWDSAYLNPSYPRTGYKAKKLIATVDGVSGDINFKFNPKFGCKAIPDYLPSNFNYHEPITITNFTMILYGYFMPKTTAFHTFYVTADDLLFMNFGAGNAFDCCRREETADKFGNYAAYSVWGKKSLKNELTVYLHTGVYYPIRLFYNNRDYIAQLDIRFKTEHSNAIITNFTDYFYSVDDSSLGCPGLI
[1]
  glycan array binding signal (z-score): -0.483
[2]
  glycan array binding signal (z-score): 0.478
[3]
  glycan array binding signal (z-score): -0.062
[4]
  glycan array binding signal (z-score): -0.592
[5]
  glycan array binding signal (z-score): -0.135
[6]
  glycan array binding signal (z-score): -0.41
[7]
  glycan array binding signal (z-score): -0.56
[8]
  glycan array binding signal (z-score): -0.443
[9]
  glycan array binding signal (z-score): 0.174
[10]
  glycan array binding signal (z-score): -0.458
[11]
  glycan array binding signal (z-score): 0.763
[12]
  glycan array binding signal (z-score): 1.87
[13]
  glycan array binding signal (z-score): 1.41
[14]
  glycan array binding signal (z-score): -0.461
[15]
  glycan array binding signal (z-score): -0.229
[16]
  glycan array binding signal (z-score): -0.48
[17]
  glycan array binding signal (z-score): -0.487
[18]
  glycan array binding signal (z-score): -0.394
[19]
  glycan array binding signal (z-score): -0.077
[20]
  glycan array binding signal (z-score): -0.321
[21]
  glycan array binding signal (z-score): 0.848
[22]
  glycan array binding signal (z-score): -0.406
[23]
  glycan array binding signal (z-score): 0.848
[24]
  glycan array binding signal (z-score): -0.156
[25]
  glycan array binding signal (z-score): -0.36
[26]
  glycan array binding signal (z-score): -0.488
[27]
  glycan array binding signal (z-score): -0.301
[28]
  glycan array binding signal (z-score): -0.073
[29]
  glycan array binding signal (z-score): -0.271
[30]
  glycan array binding signal (z-score): 0.595
[31]
  glycan array binding signal (z-score): -0.406
